Experimental data: publication PMC10882131
No constants are given. Whether binding was seen depends on the method and setting. Binding seen in cells or lysates may run through a third protein. Some binding calls cover weakened binding; strength is not graded here. Sequences can lack the tags named with a protein.

Amino acid sequences for entries named in this document (tags omitted).
UniProt Q10435: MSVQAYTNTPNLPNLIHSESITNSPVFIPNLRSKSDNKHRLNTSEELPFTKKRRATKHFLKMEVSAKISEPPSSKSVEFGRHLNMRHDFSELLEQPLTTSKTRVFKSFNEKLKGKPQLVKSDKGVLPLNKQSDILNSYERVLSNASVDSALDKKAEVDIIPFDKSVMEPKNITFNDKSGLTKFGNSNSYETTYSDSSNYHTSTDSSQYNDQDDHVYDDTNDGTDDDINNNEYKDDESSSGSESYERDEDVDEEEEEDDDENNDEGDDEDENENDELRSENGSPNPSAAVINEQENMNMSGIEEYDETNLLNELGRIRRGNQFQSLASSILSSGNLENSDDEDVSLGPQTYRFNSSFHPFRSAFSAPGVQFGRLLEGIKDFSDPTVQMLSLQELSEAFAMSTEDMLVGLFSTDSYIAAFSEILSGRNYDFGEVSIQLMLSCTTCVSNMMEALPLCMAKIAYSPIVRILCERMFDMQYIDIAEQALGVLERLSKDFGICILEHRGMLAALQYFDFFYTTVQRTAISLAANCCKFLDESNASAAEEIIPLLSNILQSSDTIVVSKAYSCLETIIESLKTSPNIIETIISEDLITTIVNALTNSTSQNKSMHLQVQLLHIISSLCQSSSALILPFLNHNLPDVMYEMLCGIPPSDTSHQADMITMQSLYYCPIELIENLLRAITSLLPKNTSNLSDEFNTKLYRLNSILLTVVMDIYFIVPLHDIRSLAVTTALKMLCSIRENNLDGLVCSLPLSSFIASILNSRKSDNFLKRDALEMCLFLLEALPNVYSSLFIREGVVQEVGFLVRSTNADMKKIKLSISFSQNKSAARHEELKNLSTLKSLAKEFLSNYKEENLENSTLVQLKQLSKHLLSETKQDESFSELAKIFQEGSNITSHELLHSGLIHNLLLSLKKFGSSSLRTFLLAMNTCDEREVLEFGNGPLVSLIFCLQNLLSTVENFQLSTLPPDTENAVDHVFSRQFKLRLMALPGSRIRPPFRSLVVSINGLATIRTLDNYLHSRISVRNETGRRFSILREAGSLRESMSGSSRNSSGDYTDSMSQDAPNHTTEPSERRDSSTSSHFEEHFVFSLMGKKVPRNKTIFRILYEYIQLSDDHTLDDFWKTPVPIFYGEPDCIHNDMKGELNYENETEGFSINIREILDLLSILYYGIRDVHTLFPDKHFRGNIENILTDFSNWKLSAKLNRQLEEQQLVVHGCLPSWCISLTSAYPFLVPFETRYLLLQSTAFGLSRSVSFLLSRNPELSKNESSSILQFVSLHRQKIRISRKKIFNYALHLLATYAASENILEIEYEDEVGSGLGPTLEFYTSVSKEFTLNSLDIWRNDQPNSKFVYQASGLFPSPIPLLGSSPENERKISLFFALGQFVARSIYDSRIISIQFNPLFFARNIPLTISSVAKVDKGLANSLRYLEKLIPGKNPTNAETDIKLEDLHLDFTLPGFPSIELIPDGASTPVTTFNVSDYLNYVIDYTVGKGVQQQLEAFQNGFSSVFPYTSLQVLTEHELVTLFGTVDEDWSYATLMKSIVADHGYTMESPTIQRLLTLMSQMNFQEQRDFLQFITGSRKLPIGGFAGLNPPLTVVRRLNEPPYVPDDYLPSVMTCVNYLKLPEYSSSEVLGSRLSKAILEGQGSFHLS

B1: Php4-GFP (GFP-tagged full-length Php4) (protein, UniProt O14318 1-295)
chain: MESSKSPSEVEKSSSASPAPQKPMIRVSKQWVVPPRPKPGRKPALDALGRRKAPIKPRPGPTSALSVEEAKFRVREKQYQDTIGKLQKENNELLEQLEMLQAQLKNSTLDSPKEVEVNSEVVKPDSATTENENRYVNQYNYPVEPPCAKNAVYTEIPIELDPHAFLGDSAKRIRVDSDSKDAKSVPSENGRIRVSMSPQNEINFTPENPAVMEKIRKRGVCNSVEGCLYSGSPKSVKRVRESEETKVYAQLLIDLHKSSKSAPMLKAGPSIAFKLPTMEPNFNDVRPVTSISSSS
B2: Php4^Δ5-56-GFP (protein, UniProt O14318)
chain: MESSPRPGPTSALSVEEAKFRVREKQYQDTIGKLQKENNELLEQLEMLQAQLKNSTLDSPKEVEVNSEVVKPDSATTENENRYVNQYNYPVEPPCAKNAVYTEIPIELDPHAFLGDSAKRIRVDSDSKDAKSVPSENGRIRVSMSPQNEINFTPENPAVMEKIRKRGVCNSVEGCLYSGSPKSVKRVRESEETKVYAQLLIDLHKSSKSAPMLKAGPSIAFKLPTMEPNFNDVRPVTSISSSS
B3: Php4^Δ56-171-GFP (protein, UniProt O14318)
chain: MESSKSPSEVEKSSSASPAPQKPMIRVSKQWVVPPRPKPGRKPALDALGRRKAPIRIRVDSDSKDAKSVPSENGRIRVSMSPQNEINFTPENPAVMEKIRKRGVCNSVEGCLYSGSPKSVKRVRESEETKVYAQLLIDLHKSSKSAPMLKAGPSIAFKLPTMEPNFNDVRPVTSISSSS
B4: Php4^Δ171-217-GFP (protein, UniProt O14318)
chain: MESSKSPSEVEKSSSASPAPQKPMIRVSKQWVVPPRPKPGRKPALDALGRRKAPIKPRPGPTSALSVEEAKFRVREKQYQDTIGKLQKENNELLEQLEMLQAQLKNSTLDSPKEVEVNSEVVKPDSATTENENRYVNQYNYPVEPPCAKNAVYTEIPIELDPHAFLGDSARGVCNSVEGCLYSGSPKSVKRVRESEETKVYAQLLIDLHKSSKSAPMLKAGPSIAFKLPTMEPNFNDVRPVTSISSSS
B5: Php4^Δ217-295-GFP (domain or fragment, UniProt O14318 1-216)
chain: MESSKSPSEVEKSSSASPAPQKPMIRVSKQWVVPPRPKPGRKPALDALGRRKAPIKPRPGPTSALSVEEAKFRVREKQYQDTIGKLQKENNELLEQLEMLQAQLKNSTLDSPKEVEVNSEVVKPDSATTENENRYVNQYNYPVEPPCAKNAVYTEIPIELDPHAFLGDSAKRIRVDSDSKDAKSVPSENGRIRVSMSPQNEINFTPENPAVMEKIR

Key:
[1] = target: T1, Php4-GFP (GFP-tagged full-length Php4) (S. pombe) (UniProt O14318); test: co-IP; reciprocal: anti-GFP beads precipitate Php4-GFP from the same extracts (cells grown 12 h, then bortezomib 12 h); blot with anti-HA
T1 sequence: B1 chain

[2] = target: Hul6-HA (HECT-type E3 ubiquitin ligase 6, hemagglutinin epitope-tagged) (S. pombe) (UniProt Q10435); test: co-IP; anti-HA beads precipitate Hul6-HA from extracts of S. pombe cells grown 12 h in YE and then treated with bortezomib for 12 h; lysis buffer 50 mM Tris-HCl pH 7.5, 150 mM NaCl, 5 mM MgCl2, 1% Nonidet P-40; blot with anti-GFP

Molecule	binding [1]	binding [2]
Hul6-HA (HECT-type E3 ubiquitin ligase 6, hemagglutinin epitope-tagged) (from UniProt Q10435 1-1647) (enzyme)	binds	
B1		binds
B2		binds
B3		binds
B4		binds
B5		no binding
